{
  "source": "the RNAGym collection of RNA variant scans (doi:10.7554/elife.90254)",
  "parents": {"B1": {"name": "OR4K15 (parent)", "chain": "GUUAACGGUCAUAGGCCAUGGAAACUAGGAGCACCAUUUCGCUGCCAGUGAAGAAAUGAACAAAGAAAAUCUGGGCCAGGCAGGCAUCAAAAGAAAUAGUCUUGCGCUCAACCAGAAAGUCUGUAAUCAUUUUAAGGGUA"}},
  "note": "Read counts are not given, so values of variants with three or more changes are uncertain.",
  "data": [
    {"variants_of": "B1", "test": "self-cleavage, relative activity (ratio to wild type); higher = more cleavage; in vitro, sequencing; the parent is a self-cleaving ribozyme", "values": [
      {"variant": "GUUAACGGUCAUAGGCCAUGGAAACUAGGAGCACCAUCUCGCUGCCAGUGAAGAAAUGAACAAAGAAAAUCAGGGCCAGGCAGGCAUCAAAAGAAAUAGUCUUGCGCUCAACCAGAAAGUCUGUAAUCAUUUUAAGUGUA", "self-cleavage": 0.35},
      {"variant": "GUUAACGGUCAUAGGCCAUGGAAACUAGGAGCACCAUCUCGCUGCCAGUGAAGAAAUGAACAAAGAAAAUCAGGGCCAGGCAGGCAUCAAAAGAAAUAGUCUUGCGCGCAACCAGAAAGUCUGUAAUCUUUUUAAGGGUA", "self-cleavage": 0.01},
      {"variant": "GUUAACGGUCAUAGGCCAUGGAAACUAGGAGCACCAUCUCGCUGCCAGUGAAGAAAUGAACAAAGAAAAUCUGGGCCAGGCAGGCACCGAAAGGAAUAGUCUUGCGCUCAACCAGAAAGUCUGUAAUCAUUUUAAGGGUA", "self-cleavage": 2.98},
      {"variant": "GUUAACGGUCAUAGGCCAUGGAAACUAGGAGCACCAUCUCGCUGCCAGUGAAGAAAUGAACAAAGAAAAUCUGGGCCAGGCAGGCACCAAAAGAAAUAGUCUUGCGCUCAACCAGAAAGUCUGUAAUCACUUUAAGGGUA", "self-cleavage": 0.34},
      {"variant": "GUUAACGGUCAUAGGCCAUGGAAACUAGGAGCACCAUCUCGCUGCCAGUGAAGAAAUGAACAAAGAAAAUCUGGGCCAGGCAGGCAUCAAAAGAAAUAGCCUUGCGCUCAACCAGGAAGUCUGUAAUCAUUUUAAGGGUA", "self-cleavage": 1.23},
      {"variant": "GUUAACGGUCAUAGGCCAUGGAAACUAGGAGCACCAUCUCGCUGCCAGUGAAGAAAUGAACAAAGAAAAUCUGGGCCAGGCAGGCAUCAAAAGAAAUAGCCUUGCGCUCAAACAGAAAGUCUGCAAUCAUUUUAAGGGUA", "self-cleavage": 0},
      {"variant": "GUUAACGGUCAUAGGCCAUGGAAACUAGGAGCACCAUCUCGCUGCCAGUGAAGAAAUGAACAAAGAAAAUCUGGGCCAGGCAGGCAUCAAAAGAAAUAGUCUCGCGCUCAACCAGGAAGUCUGUAAUCAUUUUAAGGGUA", "self-cleavage": 0.55},
      {"variant": "GUUAACGGUCAUAGGCCAUGGAAACUAGGAGCACCAUCUCGCUGCCAGUGAAGAAAUGAACAAAGAAAAUCUGGGCCAGGCAGGCAUCAAAAGAAAUAGUCUCGCGCUCAACCAGAAAGCCUGUAAUCAUUUUAAGGGUA", "self-cleavage": 0.37},
      {"variant": "GUUAACGGUCAUAGGCCAUGGAAACUAGGAGCACCAUCUCGCUGCCAGUGAAGAAAUGAACAAAGAAAAUCUGGGCCAGGCAGGCAUCAAAAGAAAUAGUCUUGCGCCCAACCAGAAAGUCUGUAAUCAUUCUAAGGGUA", "self-cleavage": 0.01},
      {"variant": "GUUAACGGUCAUAGGCCAUGGAAACUAGGAGCACCAUGUCGCUGCCAGUGAAGGAAUGAACAAAGAAAAUCUGGGCCAGGCAGGCAUCAGGAGAAAUAGUCUUGCGCUCAACCAGAAAGUCUGUAAUCAUUUUAAGGGUA", "self-cleavage": 1.24},
      {"variant": "GUUAACGGUCAUAGGCCAUGGAAACUAGGAGCACCAUGUCGCUGCCAGUGAAGGAAAGAACAAAGAAAAUCUGGGCCAGGCAGGCAUCAAAAGAAAUAGUCUUGCGCUCAACCAGAGAGUCUGUAAUCAUUUUAAGGGUA", "self-cleavage": 1.34},
      {"variant": "GUUAACGGUCAUAGGCCAUGGAAACUAGGAGCACCAUGUCGCUGCCAGUGAAGUAAUGAACAAAGAAAAUCUGGGCCAGGCAGGCACCAAAAGAAAUAGUCUUGCGCUCAACCAGAAAGUCUGUAAUCAUUUUAAGGGUA", "self-cleavage": 1.91},
      {"variant": "GUUAACGGUCAUAGGCCAUGGAAACUAGGAGCACCAUGUCGCUGCCAGUGAAGAAAUGAACAAGGGAAAUCAGGGCCAGGCAGGCAUCAAGAGAAAUAGUCUUGCGCUCAACCAGAAAGUCUGUAAUCACUUUAAGGGUA", "self-cleavage": 0.17},
      {"variant": "GUUAACGGUCAUAGGCCAUGGAAACUAGGAGCACCAUGUCGCUGCCAGUGAAGAAAUGAACAAAGAAAAUCUGGGCCAGGCAGGCAUCAAAAGAAGUAGUCUUGCGCUCAACCAGAAAGUCUGUAAUCAUUUUAAGGAUA", "self-cleavage": 0.84},
      {"variant": "GUUAACGGUCAUAGGCCAUGGAAACUAGGAGCACCAUGUCGCUGCCAGUGAAGAAAUGAACAAAGAAAAUCUGGGCCAGGCAGGCAUCAAAAGAAAUAGUCUUGCGCUCGAUCAGAAAGUCUGUAAUCAUUUUAAGGGUA", "self-cleavage": 0.01},
      {"variant": "GUUAACGGUCAUAGGCCAUGGAAACUAGGAGCACCAUGUUGCUGCCAGUGAAGAAAUGAACAAAGAAAAUCUGGGCCAGGCAGGCAUCAAAAGGAAUAGUCUUGCGCUCAACCAGAAAGUCUGUAAUCAUUUUAAGGGUA", "self-cleavage": 1.66},
      {"variant": "GUUAACGGUCAUAGGCCAUGGAAACUAGGAGCACCAUGACGCUGCCAGUGAAGAAAUGAACAAAGAAAAUCUGGGCCAGGCAGGCAUCAAAAGAAAUAGUCUUGCGCUCAACCAGAAAGUCUGUAAUCAUUUUGAGGGUA", "self-cleavage": 1.07},
      {"variant": "GUUAACGGUCAUAGGCCAUGGAAACUAGGAGCACCAUGUCGCUGCCAGUGAAGAAAUGAACAAAGAAAACCUGGGCCUGGCAGGCAUCAAAAGAAAUAGUCUUGCGCUCAACCAGAAAGUCUGUAAUCAUUUUAAGGGUU", "self-cleavage": 0.11},
      {"variant": "GUUAACGGUCAUAGGCCAUGGAAACUAGGAGCACCAUUACGCUGCCUGUGAAGAAGUGAGCAAAGUAAAUCUGGGCCAGGCAGGCAUCAAAAGAAAUAGUCUUGCGCUCAGCCAGAAAGUCUGUAAUCAUUUUAAGGGUA", "self-cleavage": 0.02},
      {"variant": "GUUAACGGUCAUAGGCCAUGGAAACUAGGAGCACCAUUACGCUGCCUGUGAAGAAAUGAACAAAGAAAAUCUGGGCCAGGCAGGCAUCAAAAGAAAUAGUCUUGCGCUCAACCAGAAUGUCUGUAAUCAUUUUAAGGGUA", "self-cleavage": 0.41},
      {"variant": "GUUAACGGUCAUAGGCCAUGGAAACUAGGAGCACCAUUACGCUGCCAGUGGAGAAAUGAACAGAGAAAAUCUGGGCCAGGCAGGCAUCAGAAGAAAUAGUCUUGCGCUCAACCAGAAAGUCUGUAAUCAUUUUAAGGGUA", "self-cleavage": 1.44},
      {"variant": "GUUAACGGUCAUAGGCCAUGGAAACUAGGAGCACCAUUACGCUGCCAGUGGAGAAAUGAACAAAGAAAGUCUGGGCCAGGCAGGCAUCAAAAGAAAUAGUCUUGCGCUCAACCAGAGAGUCUGUAAUCAUUUUAAGGGUA", "self-cleavage": 0.98},
      {"variant": "GUUAACGGUCAUAGGCCAUGGAAACUAGGAGCACCAUUACGCUGCCAGUGUAGAAAUGAACAAAGAAAAUCUGGGCCAGGCAGGCAUCAAAAGAAAUGGUCUCGCGCUCAACCAGAAAGUCUGUAAUCAUUUUAAGGGUA", "self-cleavage": 0.67},
      {"variant": "GUUAACGGUCAUAGGCCAUGGAAACUAGGAGCACCAUUACGCUGCCAGUGACGAAGUGAACAAAGAAAAUCUGGGCCAGGCAGGCAUCAAAAGAAAUAGUCUUGCGCUCAACCAGAAAGUCUGUAAUCAUUUUAAGGGUA", "self-cleavage": 1.59},
      {"variant": "GUUAACGGUCAUAGGCCAUGGAAACUAGGAGCACCAUUACGCUGCCAGUGAGGAAAUGAACAAAGAAAAUCUGGGCCAGGCAGGCAUCAAAAGAAAUAGUCUUGCGCUCAACCAGAAAGUCUGUAAUCAUUUUUAGGGUA", "self-cleavage": 1.36},
      {"variant": "GUUAACGGUCAUAGGCCAUGGAAACUAGGAGCACCAUUACGCUGCCAGUGAAGGAAUGAACAAAGAAAAUCUGGGCCAGGCAGGCAUCAAAAGAAAUAGUCUUGUGCUCAACCAGAAAGUCUGUAAUCACUUUAAGGGUA", "self-cleavage": 0.19},
      {"variant": "GUUAACGGUCAUAGGCCAUGGAAACUAGGAGCACCAUUACGCUGCCAGUGAAGGAAUGAACAAAGAAAAUCUGUGCCAGGCAGGCAUCAAAAGAAAUAGUCUUGCGCCCGACCAGAAAGUCUGUAAUCAUUUUAAGGGUA", "self-cleavage": 0},
      {"variant": "GUUAACGGUCAUAGGCCAUGGAAACUAGGAGCACCAUUACGCUGCCAGUGAAGAGAUGAACAAAGAGAAUCUGGGCCAGGCAGGCAUCAAAAGAAAUAGUCUUGCGCUCAACCAGAAAGUCUGUAAUCAUUUUAAGGGUA", "self-cleavage": 1.24},
      {"variant": "GUUAACGGUCAUAGGCCAUGGAAACUAGGAGCACCAUUACGCUGCCAGUGAAGAAGUGAACAAAGAAAAUCUGGGCCAGGCAGGCAUCAAAAGAAAUGGUCUUGCGCUCAACCAGAAAGCCUGUAAUCAUUUUAAGGGUA", "self-cleavage": 0.33},
      {"variant": "GUUAACGGUCAUAGGCCAUGGAAACUAGGAGCACCAUUACGCUGCCAGUGAAGAAGUGAACAAAGAAAAUCUGGGCCAGGCAGGCAUCAAAAGAAAUAGUCUUGCGCUCAACCAGAAAGCCUGUAAUCAUUUUAAGGGUA", "self-cleavage": 0.65},
      {"variant": "GUUAACGGUCAUAGGCCAUGGAAACUAGGAGCACCAUUACGCUGCCAGUGAAGAAAUGCACUAAGAAAAUCUGGGCCAGGCAGGCAUCAAAAGAAAUAGUCUUGCGCUCAACCUGAAAGUCUGUAAUCAUUUUAAGGGUA", "self-cleavage": 0.02},
      {"variant": "GUUAACGGUCAUAGGCCAUGGAAACUAGGAGCACCAUUACGCUGCCAGUGAAGAAAUGGACAAAGAAAUUCUGGGCCAGGCGGGCAUCAAAAGAAAUAGUCUUGCGCUCAACCAGAAAGUCUGUAAUCAUUUUAAGGGUU", "self-cleavage": 0.23},
      {"variant": "GUUAACGGUCAUAGGCCAUGGAAACUAGGAGCACCAUUACGCUGCCAGUGAAGAAAUGUACCAAGAAAAUCUGGGCCAGGCGGGCAUCAAAAGGAAUAGUCUUGCGCUCAACCAGAAAGUCUGUAAUCAUUCUAAGGGUA", "self-cleavage": 0.35},
      {"variant": "GUUAACGGUCAUAGGCCAUGGAAACUAGGAGCACCAUUACGCUGCCAGUGAAGAAAUGAGCGAAGAAAAUCCGGGCCAGGCAGGCAUCAAAAGAAAUAGUCUUGCGCUCAACCAGAAAGUCUGUAAUCAUUUUAAGGGUA", "self-cleavage": 0.1},
      {"variant": "GUUAACGGUCAUAGGCCAUGGAAACUAGGAGCACCAUUACGCUGCCAGUGAAGAAAUGAGCAAAGAAAAUCUGGGCCAGGCAGGCAUCAAAAAAAAUAGUCUUGCGCACAACCAGAAAGUCUGUAAUCAUUUUAAGGGUA", "self-cleavage": 0.04},
      {"variant": "GUUAACGGUCAUAGGCCAUGGAAACUAGGAGCACCAUUACGCUGCCAGUGAAGAAAUGAUCGAAGAAAAUCUGGGCCAGGCAGGCACCAAAAGAAAUAGUCUUGCGCUCAACCAGGAAGUCUGUAAUCAUUUUAAGGGUA", "self-cleavage": 0.52},
      {"variant": "GUUAACGGUCAUAGGCCAUGGAAACUAGGAGCACCAUUACGCUGCCAGUGAAGAAAUGAACCAAGAAGAUCUGGGCCAGGCAGGCAUCAAAAGAAAUAGUCUUGCGCUCAACCAGAAAGUCUGUAAUCAUUUUAAGGGUA", "self-cleavage": 0.98},
      {"variant": "GUUAACGGUCAUAGGCCAUGGAAACUAGGAGCACCAUUACGCUGCCAGUGAAGAAAUGAACGAAGAAAAUCUGGGCCAGGCAGGCAUCAGAAGAAAUAGUCUUGCGCUCAACCAGAAAGUCUGUAAUCAUUUUAAGGGUA", "self-cleavage": 0.79},
      {"variant": "GUUAACGGUCAUAGGCCAUGGAAACUAGGAGCACCAUUACGCUGCCAGUGAAGAAAUGAACAAGGGAAAUCUGGGCCAGGCAGGCAUCAAAAGGAAUAGUCUUGCGCUCAACCAGAAGGUCUGUAAUCAUUUUAAGGGUA", "self-cleavage": 1.23},
      {"variant": "GUUAACGGUCAUAGGCCAUGGAAACUAGGAGCACCAUUACGCUGCCAGUGAAGAAAUGAACAAGGAGAAUCUGGGCCAGGCAGGCAUCAAAAGAAAUAGUCUUGCGCUCAACCAGAAAGUCUGUAAUCAUUUUAAGGGUA", "self-cleavage": 1.87},
      {"variant": "GUUAACGGUCAUAGGCCAUGGAAACUAGGAGCACCAUUACGCUGCCAGUGAAGAAAUGAACAAGGAAAAUCUGGGCCAGGCAGGCAUCAAAAGAAAUAGUCUUGCGCUCAACCAGAAAGUCCGUAAUCAUUUUAAGGGUA", "self-cleavage": 1.19}
    ]}
  ]
}
